# In paper PMC2621267, “The Influence of Catalysis on Mad2 Activation Dynamics” (PLoS Biology, 2009):
# T1: synthetic biotin-Cdc20^111-138 (UniProt Q12834 111-138, biotin)
# T1 construct: Cdc20, residues 111-138; Held on the neutravidin-coated surface of the flow chamber through its biotin; also called biotinylated Cdc20 peptide; biotin-Cdc20 peptide^111-138; source: synthetic peptide
# T1 peptide (looked up): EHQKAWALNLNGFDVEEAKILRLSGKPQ
# Assays:
# [1] = target: T2, Cdc20:C-Mad2 complex on the surface (UniProt Q12834 111-138; Q13257, biotin | Alexa 488 C5 maleimide, covalent label (residue not stated)); assay: real-time confocal fluorescence in a flow chamber, signal in solution; same chamber with surface-held biotin-Cdc20 111-138; loss of Alexa-Mad2 fluorescence from solution followed; parameters of the curves laid over the data, [Cdc20T] = 0.9 uM; conditions: both partners purified
# T2 construct: Cdc20, residues 111-138; as m6; as m4; it is not separately purified; source: formed in the flow chamber from surface-held synthetic biotin-Cdc20^111-138 and Alexa-Mad2^wt
# [2] = target: T1, synthetic biotin-Cdc20^111-138; assay: as above; conditions: both partners purified
# [3] = target: T1, synthetic biotin-Cdc20^111-138; assay: real-time confocal fluorescence on a surface in a flow chamber; biotin-Cdc20 111-138 (~1 uM) held on a neutravidin-coated chamber surface; Alexa-488-Mad2 injected at 1-8 uM in PBS; fluorescence on the surface followed; constants from a global fit of rate equations; conditions: both partners purified
# [4] = target: Biotinylated Mad1:C-Mad2 complex (UniProt Q9Y6D9 1-718; Q13257); assay: cell-based or functional assay
# UniProt Q9Y6D9, sequence (Q9Y6D9 whole entry, chain 1 of 2): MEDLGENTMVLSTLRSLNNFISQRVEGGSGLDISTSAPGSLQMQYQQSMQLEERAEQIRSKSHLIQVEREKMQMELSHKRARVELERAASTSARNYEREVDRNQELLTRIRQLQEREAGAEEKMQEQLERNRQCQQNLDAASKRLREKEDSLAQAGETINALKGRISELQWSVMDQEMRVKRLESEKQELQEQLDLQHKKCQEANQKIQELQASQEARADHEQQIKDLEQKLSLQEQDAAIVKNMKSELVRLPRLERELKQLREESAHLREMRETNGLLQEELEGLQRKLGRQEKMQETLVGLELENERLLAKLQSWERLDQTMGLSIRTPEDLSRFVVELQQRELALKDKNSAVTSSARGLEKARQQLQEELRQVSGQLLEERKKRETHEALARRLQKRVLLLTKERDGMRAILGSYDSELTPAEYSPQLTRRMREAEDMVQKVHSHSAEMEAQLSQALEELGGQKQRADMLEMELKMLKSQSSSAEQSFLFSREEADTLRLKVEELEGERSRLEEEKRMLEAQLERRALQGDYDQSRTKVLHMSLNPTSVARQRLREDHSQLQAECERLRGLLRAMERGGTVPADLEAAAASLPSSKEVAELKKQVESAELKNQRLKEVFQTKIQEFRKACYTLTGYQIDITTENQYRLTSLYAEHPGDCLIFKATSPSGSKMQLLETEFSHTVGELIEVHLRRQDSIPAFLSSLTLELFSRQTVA
# UniProt Q9Y6D9, sequence (Q13257 whole entry, chain 2 of 2, further chain): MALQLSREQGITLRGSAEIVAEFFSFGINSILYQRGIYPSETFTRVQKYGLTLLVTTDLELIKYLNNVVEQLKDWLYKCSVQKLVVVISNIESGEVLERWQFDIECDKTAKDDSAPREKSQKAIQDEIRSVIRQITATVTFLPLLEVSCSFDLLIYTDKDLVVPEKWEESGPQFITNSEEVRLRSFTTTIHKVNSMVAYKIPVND
binder,measurement,setting,value
"Alexa Fluor 488-labelled Mad2^wt (natural protein, Alexa 488 C5 maleimide, covalent label (residue not stated), Mad2, wild type, full length; monomeric O-Mad2 after labelling; Labelled form of m1; also called Alexa-Mad2^wt; Alexa-488-Mad2^wt; source: purified as described [14], labelled with Alexa 488 C5 maleimide, separated from free dye on Superdex-75) not shown",Kd,[1],2450 nM
same,kon,[1],700000 M⁻¹ s⁻¹
same,"k cat,on (catalysed association, reaction 5)",[2],0.00175 µM⁻¹ s⁻¹
same,"k cat,on (catalysed association, reaction 5)",[3],0.003 µM⁻¹ s⁻¹
same,"rate of accumulation of 2 uM Alexa-Mad2^wt on a surface with ~1 uM Cdc20 111-138 and interspersed 0.25 uM Mad1:C-Mad2, against the surface without Mad1:C-Mad2",[4],3 fold
